According to PubChem BioAssay AID720707 (National Center for Advancing Translational Sciences (NCATS), 2013):
The whole screen tested about 360,000 compounds, of which about 270 (0.075%) were called active. The shares of active, inactive and inconclusive entries below differ from those in the screen. The call rests on the fitted dose curve; in most records, active means well fitted activation curve with a large enough effect; inconclusive means small, poorly fitted or top-dose-only effect; inactive means no such curve, though single readings can be large or run the other way. Potencies beside an inconclusive call are fits to weak or partial responses and may not hold up.

Biological target: Rap guanine nucleotide exchange factor 3 (Homo sapiens) (UniProt O95398)
UniProt O95398, sequence (O95398 whole entry, looked up): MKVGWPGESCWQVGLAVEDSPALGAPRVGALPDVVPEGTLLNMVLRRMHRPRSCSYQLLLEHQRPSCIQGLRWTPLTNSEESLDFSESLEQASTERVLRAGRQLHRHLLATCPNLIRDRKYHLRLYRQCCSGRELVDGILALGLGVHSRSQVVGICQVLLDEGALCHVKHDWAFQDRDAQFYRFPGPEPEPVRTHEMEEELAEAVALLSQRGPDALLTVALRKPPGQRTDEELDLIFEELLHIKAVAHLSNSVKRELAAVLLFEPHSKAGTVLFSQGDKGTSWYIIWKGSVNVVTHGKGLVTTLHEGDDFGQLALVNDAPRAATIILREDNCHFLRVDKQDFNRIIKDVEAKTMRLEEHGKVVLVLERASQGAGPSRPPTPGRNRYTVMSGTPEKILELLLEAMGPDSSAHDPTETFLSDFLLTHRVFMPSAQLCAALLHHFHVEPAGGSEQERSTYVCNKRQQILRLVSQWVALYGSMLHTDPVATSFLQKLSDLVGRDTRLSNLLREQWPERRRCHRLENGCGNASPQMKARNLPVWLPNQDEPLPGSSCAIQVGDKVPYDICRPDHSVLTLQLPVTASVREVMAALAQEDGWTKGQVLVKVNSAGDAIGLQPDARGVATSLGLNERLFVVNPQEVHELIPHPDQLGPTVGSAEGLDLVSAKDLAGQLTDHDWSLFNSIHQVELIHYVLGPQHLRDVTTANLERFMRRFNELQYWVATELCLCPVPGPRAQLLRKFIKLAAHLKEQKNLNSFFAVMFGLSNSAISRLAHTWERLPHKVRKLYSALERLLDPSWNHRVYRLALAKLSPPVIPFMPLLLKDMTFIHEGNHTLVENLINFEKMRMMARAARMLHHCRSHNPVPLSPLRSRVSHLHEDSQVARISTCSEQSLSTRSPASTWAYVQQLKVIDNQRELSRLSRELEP
Assay: qHTS for Agonist of cAMP-regulated guanine nucleotide exchange factor 3 (EPAC1): primary screen; further: nearly all actives have a fitted effect of over 60% in size
Conditions: biochemical assay; activation: at 154 µM (top of the series), 100% = response to 6.5 mM cAMP
Procedure, shortened: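 Nucleotide exchange assay: 100 nM EPAC1 with 250 nM Rap1B loaded with BODIPY-GDP and 50 uM GDP, room temperature. Fluorescence (480/540 nm) read every 5 min for 30 min; signal change normalized to 6.5 mM cAMP as full agonist.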
Potency means the concentration at half of the fitted maximal effect; tags describe the fitted curve by direction and shape.

Potency, inconclusive:
O=C(OCc1c(Cl)cccc1Cl)c1cccnc1Cl 112 µM [activator, partial curve], O=C(O)CSc1cc(C(=O)c2ccccc2O)cn2c(=O)c3c(-c4ccccc4)csc3nc12 56.2 µM [activator, full curve, poor fit], COc1ccc(C2=C/C(=C\c3cccc(OC(C)=O)c3)C(=O)O2)cc1 100 µM [activator, partial curve], COc1ccc(CN(C)C(=O)c2ccc(OCC(=O)Nc3cccc(C(F)(F)F)c3)c(OC)c2)c(OC)c1 22.4 µM [activator, full curve], O=C(CC(=O)c1cc(Cl)ccc1O)c1ccccc1 112 µM [activator, single point], CCOC(=O)c1cnc2c(C)cccc2c1NCc1ccco1 112 µM [activator, single point], CCOc1cc(-c2nnc(NC(=O)C3=COCCO3)o2)cc(OCC)c1OCC 56.2 µM [activator, full curve, poor fit], CCC1CCCCN1C(=O)c1cc2cc(Br)ccc2oc1=O (centres undefined) 112 µM [activator, single point], CC12CCC(=O)N1C(C(=O)Nc1ccccc1F)CS2 (centres undefined) 50.1 µM [activator, partial curve, poor fit], Cc1ccc(NC(=O)c2cccc(NC(=O)CC3SC(N4CCCCC4)=NC3=O)c2)nc1 (centres undefined) 50.1 µM [activator, single point], COc1ccc(Br)cc1CN(C)C(=O)c1ccccc1OCc1c(C)noc1C 25.1 µM [activator, partial curve], CCOc1ccc(/C=C/[N+](=O)[O-])c2ccccc12 112 µM [activator, partial curve], COc1ccc(/C=N/N(c2ccccc2)c2ccccc2)cc1O 112 µM [activator, partial curve], O=C(NC1CCCC1)C1C(c2ccc(C(F)(F)F)cc2)=Nc2ccccc2N1C(=O)c1cccc2ccccc12 (centres undefined) 112 µM [activator, single point], COCCCn1c(SCCc2ccccc2)nc2cc(OC)c(OC)cc2c1=N 112 µM [activator, partial curve], Cc1cc(C)c2nc(N(CCCN(C)C)C(=O)c3ccc(S(=O)(=O)N4CC(C)OC(C)C4)cc3)sc2c1 (centres undefined) 126 µM [activator, single point], O=S(=O)(N/N=C\c1cn(-c2ccccc2)nc1-c1ccccc1)c1ccccc1 89.1 µM [activator, partial curve], COc1ccc(CCN(C)C(=O)C23CC4CC(CC(Cl)(C4)C2)C3)cc1OC 50.1 µM [activator, partial curve], CN1CC=C2C(C#N)=C(N)C(C#N)(C#N)[C@H](c3cccc(Cl)c3)C2C1 (some centres undefined) 100 µM [activator, partial curve], Cc1nc(SCC(=O)N2CCCCCC2)[nH]c(=O)c1C 25.1 µM [activator, single point], CCCCCc1ccc(CC(=O)Nn2c(C)nc3ccccc3c2=O)cc1 79.4 µM [activator, partial curve], CCN(CC(=O)Nc1c(F)cccc1F)C(=O)c1ccc(N2C(=O)c3ccccc3C2=O)cc1 39.8 µM [activator, full curve, poor fit], Cc1nn(-c2ccccc2)c(N2CCCC2)c1/C=C1\N=C(c2ccc(OC(C)C)cc2)OC1=O 100 µM [activator, partial curve], O=C(Nc1ccncc1)c1ccc2ncsc2c1 112 µM [activator, single point], CCc1ccccc1NS(=O)(=O)c1cc2c3c(c1)CCN3C(=O)CC2 22.4 µM [activator, full curve, poor fit], c1ccc(-c2ccc(CN3CCN(c4ncccn4)CC3)cc2)cc1 100 µM [activator, partial curve], COc1ccc(NC(=O)CSc2nc(=O)n(CCN3CCOCC3)c3c2CCC3)c(OC)c1 100 µM [activator, partial curve], O=C(O)CC/C(=C\c1cccc(NC(=O)c2ccccc2Cl)c1)c1nc2ccccc2s1 63.1 µM [activator, full curve, poor fit], CC1(C)Cc2cccc(OCC(=O)OCC(=O)NCc3ccc(F)cc3)c2O1 12.6 µM [activator, partial curve], Brc1ccc(C2=CC(c3cccs3)n3ncnc3N2)cc1 (centres undefined) 112 µM [activator, single point], Nc1c(C(=O)NCc2ccc(Cl)cc2)sc2nc3c(c(C(F)(F)F)c12)CCC3 112 µM [activator, single point], COc1ccccc1N1C(=O)C2C(C(=O)c3ccccc3)=NN(c3ccccc3OC)C2C1=O (centres undefined) 112 µM [activator, partial curve], CCN1CCc2c(sc(N)c2C(N)=O)C1 100 µM [activator, partial curve], COc1cc(SC)ccc1C(=O)NCCOc1c(C)cc(C)cc1C 100 µM [activator, partial curve], CCOc1cc(/C=C2/NC(=O)NC2=O)cc(Br)c1OCc1ccc(C(=O)O)cc1 70.8 µM [activator, partial curve], CN(CC(=O)Nc1ccc(Cl)c(C(F)(F)F)c1)C(=O)c1cn2ccccc2n1 112 µM [activator, partial curve, poor fit], COc1ccc(-c2cc(C(=O)N3CC(C)CC(C)C3)c3ccccc3n2)cc1 (centres undefined) 35.5 µM [activator, full curve, poor fit], Cc1nc(Cl)c2c(n1)NC1=C(O2)C(=O)CCC1 100 µM [activator, partial curve], Cc1ccc(C)c(NC(=O)CN(C)C(=O)c2cccc(S(=O)(=O)N3CCCC3)c2)c1 112 µM [activator, single point], O=C(NCCN1CCC(n2c(=O)[nH]c3ccccc32)CC1)c1cccc2c1-c1ccccc1C2=O 3.16 µM [activator, full curve, poor fit], CCCN1C(=O)c2cccc3c(N4CCCCC4)ccc(c23)C1=O 15.8 µM [activator, partial curve], O=C(Cc1ccc(Cl)c(Cl)c1)Nc1cccc(S(=O)(=O)N2CCOCC2)c1 100 µM [activator, partial curve], N#Cc1c(NC(=O)COC(=O)c2nccnc2N)sc2c1CCCC2 112 µM [activator, partial curve], O=C(COC(=O)c1cccc(-n2cnnn2)c1)c1ccc(F)cc1 126 µM [activator, single point], CCC1=NN2C(=N)/C(=C\c3cccn3-c3ccc(OC)cc3)C(=O)N=C2S1 126 µM [activator, single point]

Potency, active:
CC(=O)OCCn1c2nc(=O)[nH]c(=O)c-2nc2cc(C)c(C)cc21 50.1 µM, O=C1c2cccc3c(O)ccc(c23)C(=O)N1Cc1ccccc1 100 µM, Cc1nn(C)cc1N1C(=O)c2cccc3c(N)ccc(c23)C1=O 89.1 µM, CCc1cccc(NC(=O)COC(=O)/C=C/c2cccs2)c1 112 µM, CN(C)c1ccc(/C=C/C(=O)c2ccc3c(c2)OCO3)cc1 63.1 µM

Potency, inactive:
O=C(Nc1ccc2ccccc2c1)C(c1ccccc1F)n1c(=O)c(-c2cc3ccccc3[nH]2)nc2ccccc21 (centres undefined), O=C(O)c1cc2cc(Cl)ccc2[nH]1, CC1CCN(c2ccc(C=O)o2)CC1, COC(CNC(=O)CN1CCN(Cc2ccccc2F)C1=O)OC, CCOC(=O)c1c(C)n(S(=O)(=O)c2ccc(C)cc2)c2ccc(O)c(C(=O)O)c12, CCOCc1cnc(C)nc1NCC(=O)c1c(C)[nH]c2ccc(OC)cc12, O=[N+]([O-])c1ccc(Cn2cc(-c3cccc(C(F)(F)F)c3)nn2)cc1, Cc1cccn2c(=O)c(/C=C(\C#N)C(=O)NC3CCS(=O)(=O)C3)c(Oc3ccc(F)cc3)nc12 (centres undefined), CCc1nc2ccc(C(=O)NCCOc3ccc(OC)cc3)cn2c1N(C)C(=O)C1CCCCC1, CSc1ccc(CN2CCC(n3nccc3NC(=O)c3ccccc3C)CC2)cc1, CSS(=O)(=O)c1cccc2cccnc12, O=C(O)c1csc(N/N=C/c2ccc(Br)cc2)n1, O=C(Nc1sc2c(c1C(=O)O)CCCCC2)c1ccccc1, O=c1[nH]c(Nc2ccccc2)cc2ccccc12, Cc1[nH]c2ccc3ncccc3c2c1C, CCCCn1c(NC(=O)c2ccco2)c(S(=O)(=O)c2ccc(C)cc2)c2nc3ccccc3nc21, Cc1cc(C(=O)Nc2ccc(S(=O)(=O)Nc3onc(C)c3C)cc2)c(C)o1, COCCCn1c(SCC(=O)OC2CCCCC2)nnc1-c1cccs1

activation, inconclusive:
CN(CC(=O)Nc1ccccc1Cl)C(=O)Cn1cc(C(F)(F)F)cc(Cl)c1=O 3.18% [activator]
